# In PubChem BioAssay AID463173 (ICCB-Longwood Screening Facility, Harvard Medical School, 2010):
# Hit rate of the full screen: of about 52,000 compounds, about 1,700 (3.3%) were called active. Cut-off read from the data, not from the text of the source: active = survival mostly below about 52% (no sharp cut-off); inactive = mostly above about 56%. Some of the results follow.
# Tested on: Wild type
# Assay: S. aureus survival, RN4220 and DeltatarO strains – OD600, teichoic acid synthesis inhibitors, primary screen (AID 463173)
# Settings: S. aureus RN4220 wild type/DeltatarO growth, OD600, 18 h, hits give low values, screened at 18.75 µg/mL (by protocol)
row,Structure (SMILES),survival
1,Cc1ccc(C)c(Cn2c(=O)n(CC3CCC(C(=O)N4CCOCC4)CC3)c(=O)c3sccc32)c1 (configuration not stated),inactive: 69%
2,CCOC(=O)c1cccc(NC(=O)c2ccc3c(c2)nnn3CC)c1,inactive: 87%
3,Cc1ccc(NC(=O)Cn2c(=O)c(C(F)(F)F)nc3ccccc32)cc1C,inactive: 47%
4,CCOC(=O)c1ccccc1NC(=O)Cn1nnc2sc3c(c2c1=O)CCCC3,inactive: 84%
5,Cc1ccc(C(C(=O)NC2CCCCC2)N(C)Cc2ccccc2)cc1 (configuration not stated),active: -1%
6,CCc1cccc(CC)c1NC(=O)CCS(=O)(=O)c1ccc(Br)s1,inactive: 101%
7,CC1(C)Cc2nc3sc(C(=O)NN)c(N)c3cc2CO1,inactive: 107%
8,Cc1oc2c(c1C(=O)Nc1ccc(F)c(F)c1)C1=NCCN1C=N2,inactive: 78%
9,O=C(CCSc1nnc(-c2ccncc2)o1)Nc1ccccc1,inactive: 108%
10,CCOc1ccc(NC(=O)c2oc3ccccc3c2NC(=O)C2CCCCC2)cc1,inactive: 84%
11,COc1ccc2[nH]cc(NC(=O)N3CCN(C)CC3)c(=O)c2c1,inactive: 114%
12,CCOC(=O)c1ccccc1Nc1nc2ccc(C)cc2n2nnnc12,inactive: 90%
13,Cc1cccc(C)c1NC(=O)c1nc(S(C)(=O)=O)ncc1N(Cc1ccc(C(C)(C)C)cc1)Cc1ccco1,inactive: 85%
14,Cn1cc(-c2cc3n(n2)CCC(=O)N3CCCC(=O)NCc2ccc(F)cc2)c2ccccc21,inactive: 78%
15,CCN1CCN(Cc2c(O)ccc3oc(C)c(C(=O)Nc4ccc(OC)cc4)c23)CC1,inactive: 86%
16,FC(F)(F)Sc1ccc2noc(-c3ccccc3)c2c1,inactive: 115%
17,CC(C)CNC(=O)N1CCN(S(=O)(=O)c2ccc3c(ccn3C)c2)CC1,inactive: 73%
18,Cc1ccc(NC(=O)CSc2nc3nc(C)c(Cc4ccccc4)c(C)n3n2)cc1,inactive: 47%
19,Cc1ccc2oc3c(c(=O)c2c1)C(c1ccccc1F)N(c1ccccn1)C3=O (configuration not stated),inactive: 67%

row,Structure (SMILES),survival
1,CC(=O)Nc1ccc(-c2csc(N)n2)cc1,inactive: 109%
2,COc1ccc(-c2cc(C(F)(F)F)n3nc(C(=O)Nc4cc(C(F)(F)F)ccc4Cl)cc3n2)cc1OC,inactive: 145%
3,COc1ccc(Cn2ccnc2SCC(=O)Nc2ccc3c(c2)OCO3)cc1,inactive: 69%
4,Cc1ccc(NC(=O)N2CC3CCCN3c3ccccc32)cc1C (configuration not stated),active: -2%
5,Cc1ccc(NCc2nnc(SCC(=O)N3c4ccccc4CCc4ccccc43)o2)c(C)c1,inactive: 119%
6,CCCC(c1nnnn1CC1CCCO1)N(Cc1cccs1)Cc1cc2ccc(C)c(C)c2[nH]c1=O (configuration not stated),inactive: 104%
7,CN(C)c1ccc(CN(Cc2ccco2)C(=O)COc2ccc(F)cc2)cc1,inactive: 95%
8,Cc1cccc(C(=O)NCC(c2cccs2)S(=O)(=O)c2cccs2)c1 (configuration not stated),inactive: 68%
9,COc1ccccc1CCNC(=O)C(=O)NCC(c1ccco1)S(=O)(=O)c1cccs1 (configuration not stated),inactive: 71%
10,COc1ccc(C(=O)Nc2ccc(NC(=O)c3cccs3)cc2)cc1OC,inactive: 87%
11,CCOC(=O)c1ccc(CN(Cc2ccc(C)cc2)S(=O)(=O)c2ccc(F)c(C(=O)Nc3ccc(C)c(F)c3)c2)cc1,inactive: 65%
12,Cc1ccc(S(=O)(=O)NC2(C(F)(F)F)NC(=O)N(c3ccc(F)cc3)C2=O)cc1 (configuration not stated),inactive: 67%
13,CCOCCc1nn2c(=O)cc(COC(=O)c3ccccc3NC(=O)c3ccccc3F)nc2s1,inactive: 73%
14,CC1CCN(S(=O)(=O)c2ccc3c(c2)CCN3C(=O)Nc2cccc(Br)c2)CC1,inactive: 84%
15,Cc1ccc(-c2nc3n(n2)C(c2ccccc2Cl)C=C(c2ccc(Cl)cc2)N3)cc1 (configuration not stated),inactive: 78%
16,O=C(NCC(c1ccc2c(c1)OCO2)N1CCN(c2ccccc2)CC1)C(=O)Nc1ccc(F)cc1 (configuration not stated),inactive: 71%
17,CC(=O)Oc1ccc(Nc2nc3nonc3nc2Nc2ccccc2)cc1,inactive: 104%
18,CCOc1ccc(C(=O)c2cn(CC(=O)Nc3ccc(OC)cc3)c3cc4c(cc3c2=O)OCO4)cc1,inactive: 82%
19,CC(C)CCn1c(=O)c2cccnc2n(CC(=O)Nc2ccccc2)c1=O,inactive: 77%

row,Structure (SMILES),survival
1,Cc1oc(-c2ccc(C(=O)NCCC(C)C)cc2)nc1CS(=O)(=O)c1ccccc1,inactive: 73%
2,CCOC(=O)c1c(C)[nH]c(C)c1S(=O)(=O)N1CCCC(C(=O)Nc2ncccc2C)C1 (configuration not stated),inactive: 59%
3,COC(=O)c1sccc1S(=O)(=O)N(CC(=O)NCc1ccc(C)cc1)c1ccccc1,inactive: 72%
4,CC(C)C(=O)Nc1cccc(-c2nc3ccccc3o2)c1,inactive: 103%
5,OC(C#CCN1CCOCC1)(c1ccccc1)c1ccccc1,inactive: 107%
6,N#Cc1c[nH]n2c(NC3CCCC3)c(-c3cccc(Br)c3)nc12,inactive: 48%
7,Cc1ccn2c(NC(=O)c3cccc(Cl)c3)c(-c3ccccc3)nc2c1,inactive: 62%
8,CCOCCCn1c(=N)c(C(=O)NC(C)c2ccccc2)cc2c(=O)n3cc(C)ccc3nc21 (configuration not stated),inactive: 83%
9,CCc1ccc(CNc2ncc(-c3cccc(OC)c3)n2C)cc1,active: 4%
10,CCCC(=O)N1CCc2cc(OC)c(OC)cc2C1COc1ccccc1OC (configuration not stated),inactive: 22%
11,Cc1cccc(C)c1NC(=O)Cn1c(=O)n(Cc2ccc(C(=O)NCc3ccco3)cc2)c(=O)c2sccc21,inactive: 81%
12,CCOC(=O)Cc1cc(C(=O)Nc2ccc(Br)cc2)sc1-c1ccc(C)cc1,inactive: 119%
13,Cc1cc(C)cc(OCC(=O)Nc2nonc2-c2ccc(Br)cc2)c1,inactive: 120%
14,O=C(NCC1CCCO1)C1CC(c2ccccc2O)=NO1 (configuration not stated),inactive: 129%
15,Cc1nc2sc(C)c(C)n2c(=O)c1S(=O)(=O)N1CCN(c2ccccc2F)CC1,inactive: 88%
16,Cc1cccc(N2CCN(C(=O)c3ccc4nc(N5CCC(C)CC5)sc4c3)CC2)c1C,active: 1%
17,Cc1ccc2c(Sc3ccc(Cl)cc3)c(C(=O)NCCC(C)C)[nH]c2c1,inactive: 91%
18,Cc1c(C(=O)N(Cc2ccc(N(C)C)cc2)CC2CCCO2)oc2ccccc12 (configuration not stated),inactive: 77%
19,CCc1nnc(SCc2nc(-c3ccccc3Cl)oc2C)c2cc3sc(C)cc3n12,inactive: 81%
